Reference: article PMC6919601, “Identification of Plasmodium dipeptidyl aminopeptidase allosteric inhibitors by high throughput screening” (PLoS ONE, 2019)
About 230 (0.21%) of roughly 110,000 compounds showed an effect of 50% or more. This is one part of the list.

target: DPAP1 (Plasmodium falciparum, UniProt Q8IIJ9); assay: primary screen, percent inhibition; read by cleavage of a fluorogenic dipeptide substrate; higher = more effect of the substance; parameters: species or system P. falciparum D10 trophozoite lysates; single well
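Also: 30 min substrate incubation versus DMSO and 10 µM JCP410 controls.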

Sequence of DPAP1 (Q8IIJ9 whole entry, looked up): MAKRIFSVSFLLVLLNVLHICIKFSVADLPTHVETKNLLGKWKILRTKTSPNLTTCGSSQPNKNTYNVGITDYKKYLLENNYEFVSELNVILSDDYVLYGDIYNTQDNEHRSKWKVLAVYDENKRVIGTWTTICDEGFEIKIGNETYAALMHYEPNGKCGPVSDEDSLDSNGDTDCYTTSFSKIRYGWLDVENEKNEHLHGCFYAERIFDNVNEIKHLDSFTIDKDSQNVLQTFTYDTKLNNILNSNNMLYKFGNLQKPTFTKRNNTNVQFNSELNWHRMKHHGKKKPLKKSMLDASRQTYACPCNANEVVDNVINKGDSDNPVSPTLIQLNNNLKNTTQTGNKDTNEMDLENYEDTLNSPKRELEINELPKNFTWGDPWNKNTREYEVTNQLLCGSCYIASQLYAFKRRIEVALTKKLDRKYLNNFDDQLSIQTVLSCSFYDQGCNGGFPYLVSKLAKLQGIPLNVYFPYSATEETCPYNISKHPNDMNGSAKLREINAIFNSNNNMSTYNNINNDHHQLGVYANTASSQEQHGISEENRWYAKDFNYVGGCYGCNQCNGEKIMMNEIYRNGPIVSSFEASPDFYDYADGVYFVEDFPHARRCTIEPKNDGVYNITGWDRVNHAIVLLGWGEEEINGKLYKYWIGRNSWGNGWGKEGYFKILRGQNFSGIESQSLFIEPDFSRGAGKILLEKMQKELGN

| Structure (SMILES) | % Inhibition @ 10 uM |
| --- | --- |
| CCOCCCN(Cc1ccco1)C(=O)Nc1cn(CC(C)C)c(=O)c2ccccc12 | 4.74% |
| COc1cccc(-c2nn(C)c3sc(C(=O)Nc4cnc5ccccc5c4)cc23)c1 | 7.59% |
| CN(C)CCN(C)CC(c1ccccc1)c1ccccc1 | 1.62% |
| CCC1(C)OC(=O)N(C2CC(C)(C)NC(C)(C)C2)C1(C)O (stereo not drawn) | -2.54% |
| Cn1c(S(=O)(=O)Cc2ccccc2)nc2ccccc21 | -1.56% |
| CCc1ccccc1N(CC(=O)N1CCCCCC1)S(C)(=O)=O | 1.85% |
| CCOc1cc(C(=O)NC(CC(=O)O)c2ccc(OC3CCCC3)cc2)cc(OCC)c1OCC (stereo not drawn) | 1.32% |
| CCOc1ccccc1NC(=O)CCc1ccccc1 | -0.48% |
| CC(Nc1oc(COc2ccccc2F)nc1C#N)c1ccccc1 (stereo not drawn) | -6.55% |
| Clc1cccc(N2CCN(Cc3ccccc3)CC2)c1 | -8.39% |
| Cc1cc(N2C(=O)CCC2=O)n(-c2ccccc2)n1 | 2.76% |
| COCC(C)NC(=O)c1cc(-c2ccc(F)cc2)on1 (stereo not drawn) | -4.07% |
| O=C([C@@H](c1ccccc1)N1Cc2ccccc2C1=O)N1CCN(c2ccccn2)CC1 | -0.465% |
| S=c1nc(-c2ccccc2)n(-c2ccc(Cl)cc2)c2c1CCCC2 | -0.711% |
| CCn1nc(-c2ccc(OC)c(OC)c2)c2c(=O)n(C)c(=O)[nH]c21 | 13.2% |
| CCC(C)NC(=O)Cn1ncc2c3ccccc3n(Cc3ccccc3F)c2c1=O (stereo not drawn) | 3.4% |
| c1ccc(N2CCN(CCCn3c4ccccc4c4ccccc43)CC2)cc1 | -0.636% |
| O=C1NC(C(F)(F)F)(C(F)(F)F)N=C2SC=CN12 | 6.28% |
| CC(C)CCNC(=O)CCCn1c(=O)c2cccn2c2cccnc21 | 2.03% |
| CCCCNC(=S)NCCc1c(C)[nH]c2ccccc12 | -9.69% |
| CC(C)n1cc(/C=C2/NC(=O)NC2=O)c2ccccc21 | -3.06% |
| CS(=O)(=O)C1=NN2C(=N)/C(=C\c3ccc(OCc4ccc(Cl)cc4)cc3)C(=O)N=C2S1 | -3.39% |
| COc1ccc(CN2C(=O)c3oc4ccc(Br)cc4c(=O)c3C2c2cccc(O)c2)cc1 (stereo not drawn) | -1.73% |
| c1ccc(C2=Nn3c(nnc3C3COc4ccccc4O3)SC2)cc1 (stereo not drawn) | 6.01% |
| CC1=C(C)CC(C(=O)Nc2ccccc2C)C(C(=O)O)C1 (stereo not drawn) | -1.37% |
| CCc1[nH]nc2c1C(c1cc(OC)ccc1OC)C(C#N)=C(N)O2 (stereo not drawn) | -2.91% |

| Structure (SMILES) | % Inhibition @ 10 uM |
| --- | --- |
| CCn1ncc(C2=NOC(C(=O)O)C2)c1C (stereo not drawn) | 1.89% |
| CCn1cc(CCCC(=O)N2CCN(c3ccccn3)CC2)c2ccccc21 | 3.71% |
| Cc1ccc(Oc2nc3ccccn3c(=O)c2/C=C(\C#N)C(=O)N2CCOCC2)cc1 | 8.51% |
| CC(=O)c1c(O)cc(C)o/c1=N\c1ccccc1N | -2.54% |
| CCOCCCNC(=O)CSc1ccc(Cl)cc1 | 12.4% |
| Brc1ccc(CN2C3=NCCCN3c3ccccc32)cc1 | -4.6% |
| Cc1cc(C)nc(NS(=O)(=O)c2ccc(N3C(=O)c4ccccc4C3=O)cc2)n1 | -0.736% |
| O=C(Nc1ccccn1)c1nc(-c2ccc(Cl)cc2)n2c1CCCCC2 | 0.214% |
| CCOC(=O)c1cnc(SCC(=O)NCCc2ccccc2)nc1N | -1.6% |
| CNC(=O)c1cc2c(=O)n3ccccc3nc2n(Cc2cccnc2)c1=N | -1.47% |
| CCOC(=O)c1cc(CC)sc1NC(C)=O | 15.3% |
| Cc1[nH]c2ccccc2c1/C=C1\SC(=O)NC1=O | 1.74% |
| CCC(Oc1ccccc1)C(=O)NCCc1ccccc1 (stereo not drawn) | 2.01% |
| Cc1ccc(C2C(C#N)=C(N)OC3=C2C(=O)CC(c2ccccc2Cl)C3)cc1 (stereo not drawn) | -0.99% |
| COc1cc(/C=C/c2nc3ccccc3nc2O)cc(OC)c1OC | 4.11% |
| CCCCCOc1ccc(C2C(C(=O)OCCOC)=C(C)N=C3SC(CC)C(=O)N32)cc1 (stereo not drawn) | -1.18% |
| CCOc1ccc2nc(N3CCCC(C(=O)N4CCN(Cc5ccccc5)CC4)C3)sc2c1 (stereo not drawn) | 1.8% |
| CC(c1ccccc1)N1C(=O)c2ccccc2C1C(=O)NC1CCCCC1 (stereo not drawn) | 1.16% |
| CCOC(=O)N1CCC(N2CCN(c3ccccc3F)CC2)CC1 | -3.6% |
| Cc1nn(Cc2cccc(C(=O)Nc3ccccc3F)c2)c(C)c1Cl | -1.06% |
| Cc1nc2cc(C(=O)NCc3ccc4c(c3)OCO4)ccc2n1-c1ccc(Br)cc1 | 4.35% |
| Cc1nc2ccn(Cc3cccnc3)c(=O)c2cc1C(=O)NCc1ccc(F)cc1 | 0.234% |
| CN1CCN(C(=O)c2cccc(COc3cc(Cl)ccc3Cl)c2)CC1 | -3.13% |
| N#Cc1c(/N=C/N2CCOCC2)sc2c1CCCC2 | 0.392% |
| CCOC(=O)N1CCN(C(=O)Cn2ncc3c2-c2cc(C)ccc2OC3)CC1 | -0.883% |
